Test results as given in the supplement of paper PMC11876631.
Where a chain is given by its changes, count along the chain named. Numbers in names are those of the source. ± gives the standard deviation of the averaged measurements. Laboratory Escherichia coli strains with one amino-acid change in an essential protein, pooled on minimal glucose agar with carbenicillin or gentamicin at twice the control MIC (plus kanamycin and chloramphenicol for the plasmids), 48 h. Fold change of barcode share against drug-free plates; higher = less susceptible. Active = above 20 in both replicates (the paper's putatively resistant). '<' = one read or none on drug, '>' = one read or none on a drug-free plate. Shares are relative, so most strains fall below 1 when a few take over. Listed are strains with at least 15 reads on both drug-free plates, and hits; most hits rest on fewer reference reads. Replicate rank correlation about 0.5. Edits are read from barcodes.

B1: glmS V96A (protein)
chain: MCGIVGAIAQRDVAEILLEGLRRLEYRGYDSAGLAVVDAEGHMTRLRRLGKVQMLAQAAEEHPLHGGTGIAHTRWATHGEPSEVNAHPHVSEHIVAVHNGIIENHEPLREELKARGYTFVSETDTEVIAHLVNWELKQGGTLREAVLRAIPQLRGAYGTVIMDSRHPDTLLAARSGSPLVIGLGMGENFIASDQLALLPVTRRFIFLEEGDIAEITRRSVNIFDKTGAEVKRQDIESNLQYDAGDKGIYRHYMQKEIYEQPNAIKNTLTGRISHGQVDLSELGPNADELLSKVEHIQILACGTSYNSGMVSRYWFESLAGIPCDVEIASEFRYRKSAVRRNSLMITLSQSGETADTLAGLRLSKELGYLGSLAICNVPGSSLVRESDLALMTNAGTEIGVASTKAFTTQLTVLLMLVAKLSRLKGLDASIEHDIVHGLQALPSRIEQMLSQDKRIEALAEDFSDKHHALFLGRGDQYPIALEGALKLKEISYIHAEAYAAGELKHGPLALIDADMPVIVVAPNNELLEKLKSNIEEVRARGGQLYVFADQDAGFVSSDNMHIIEMPHVEEVIAPIFYTVPLQLLAYHVALIKGTDVDQPRNLAKSVTVE
B2: gapA V17Q (protein)
chain: MTIKVGINGFGRIGRIQFRAAQKRSDIEIVAINDLLDADYMAYMLKYDSTHGRFDGTVEVKDGHLIVNGKKIRVTAERDPANLKWDEVGVDVVAEATGLFLTDETARKHITAGAKKVVMTGPSKDNTPMFVKGANFDKYAGQDIVSNASCTTNCLAPLAKVINDNFGIIEGLMTTVHATTATQKTVDGPSHKDWRGGRGASQNIIPSSTGAAKAVGKVLPELNGKLTGMAFRVPTPNVSVVDLTVRLEKAATYEQIKAAVKAAAEGEMKGVLGYTEDDVVSTDFNGEVCTSVFDAKAGIALNDNFVKLVSWYDNETGYSNKVLDLIAHISK
B3: gapA L155A (protein)
chain: B2 chain with Q17V, L155A
B4: gapA F18W (protein)
chain: B2 chain with Q17V, F18W
B5: gapA F18A (protein)
chain: B2 chain with Q17V, F18A
B6: ftsZ V116A (protein)
chain: MFEPMELTNDAVIKVIGVGGGGGNAVEHMVRERIEGVEFFAVNTDAQALRKTAVGQTIQIGSGITKGLGAGANPEVGRNAADEDRDALRAALEGADMVFIAAGMGGGTGTGAAPVAAEVAKDLGILTVAVVTKPFNFEGKKRMAFAEQGITELSKHVDSLITIPNDKLLKVLGRGISLLDAFGAANDVLKGAVQGIAELITRPGLMNVDFADVRTVMSEMGYAMMGSGVASGEDRAEEAAEMAISSPLLEDIDLSGARGVLVNITAGFDLRLDEFETVGNTIRAFASDNATVVIGTSLDPDMNDELRVTVVATGIGMDKRPEITLVTNKQVQQPVMDRYQQHGMAPLTQEQKPVAKVVNDNAPQTAKEPDYLDIPAFLRKQAD
B7: ftsZ V311A (protein)
chain: B6 chain with A116V, V311A
B8: ftsZ V128A (protein)
chain: B6 chain with A116V, V128A
B9: ftsZ V116W (protein)
chain: B6 chain with A116W
B10: argC V76A (protein)
chain: MLNTLIVGASGYAGAELVTYVNRHPHMNITALTVSAQSNDAGKLISDLHPQLKGIVDLPLQPMSDISEFSPGVDVAFLATAHEVSHDLAPQFLEAGCVVFDLSGAFRVNDATFYEKYYGFTHQYPELLEQAAYGLAEWCGNKLKEANLIAVPGCYPTAAQLALKPLIDADLLDLNQWPVINATSGVSGAGRKAAISNSFCEVSLQPYGVFTHRHQPEIATHLGADVIFTPHLGNFPRGILETITCRLKSGVTQAQVAQVLQQAYAHKPLVRLYDKGVPALKNVVGLPFCDIGFAVQGEHLIIVATEDNLLKGAAAQAVQCANIRFGYAETQSLI
B11: argC V76W (protein)
chain: B10 chain with A76W
B12: argC V76Q (protein)
chain: B10 chain with A76Q
B13: argC I302A (protein)
chain: B10 chain with A76V, I302A

Biological target: Escherichia coli (laboratory strain)
Test: barcode share on antibiotic plates over drug-free plates; higher = less susceptible
Method: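 A pool of E. coli strains, each edited to carry one amino-acid change in an essential protein, was grown for 48 h on minimal glucose agar with or without antibiotic; strain barcodes were sequenced; mean of two replicates.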

[1] = antibiotic: carbenicillin, 2× MIC (3.1 µg/mL)
[2] = antibiotic: gentamicin, 2× MIC (MIC 0.45 µg/mL)

Row | Protein | fold change of barcode share [1] | fold change of barcode share [2]
1 | B1 | 0.514 ± 0.44 | 0.0065 ± 0.0057
2 | B2 | 0.232 ± 0.088 | < 0.0107
3 | B3 | 0.94 ± 0.76 | 0.0158 ± 0.011
4 | B4 | 1.13 ± 1.1 | < 0.00676
5 | B5 | 0.433 ± 0.3 | 0.0193 ± 0.012
6 | B6 | 0.378 ± 0.0078 | 0.00498 ± 0.0039
7 | B7 | 0.0778 ± 0.047 | < 0.013
8 | B8 | 0.239 ± 0.015 | 0.0129 ± 0.0063
9 | B9 | 0.187 ± 0.17 | –
10 | B10 | 0.906 ± 0.21 | < 0.012
11 | B11 | 1.64 ± 0.49 | –
12 | B12 | 0.571 ± 0.084 | 0.031 ± 0.028
13 | B13 | 0.235 ± 0.012 | < 0.00358
